Assay [1] addresses full-length mHVEM M56D-mCherry, on cells (mouse) (UniProt Q80WM9). Briefly: flow cytometry on cells; cell–cell method: cells with mHVEM-mCherry mixed with cells with mBTLA-EGFP or mLIGHT-IRES-EGFP, shaken at 900 rpm at room temperature for 2 h; percent double-positive cells.
Assay [2] deals with full-length mHVEM R43D-mCherry, on cells (mouse) (UniProt Q80WM9). The description is as above.
The target in assay [3] is full-length mHVEM A76D-mCherry, on cells (mouse) (UniProt Q80WM9). Described as above.
For assay [4], the target named is full-length mHVEM H86D-mCherry, on cells (mouse) (UniProt Q80WM9). Described as above.
Assay [5] addresses full-length mHVEM H86D-L90A double mutein-mCherry, on cells (mouse) (UniProt Q80WM9). The assay is described as above.
Assay [6] deals with full-length mHVEM G72R-V74A double mutein-mCherry, on cells (mouse) (UniProt Q80WM9). The assay is described as above.
Assay [7] deals with full-length mHVEM L94A-mCherry, on cells (mouse) (UniProt Q80WM9). The description is as above.
Assay [8] addresses full-length mHVEM L90A-mCherry, on cells (mouse) (UniProt Q80WM9). Described as above.
The target in assay [9] is full-length mHVEM L94D-mCherry, on cells (mouse) (UniProt Q80WM9). The assay is described as above.
For assay [10], the target named is full-length mHVEM V74D-mCherry, on cells (mouse) (UniProt Q80WM9). The assay is described as above.
Assay [11] addresses full-length WT mouse HVEM-mCherry, on cells (mouse) (UniProt Q80WM9). The assay is described as above.
The target in assay [12] is full-length mHVEM G72D-mCherry, on cells (mouse) (UniProt Q80WM9). The assay is described as above.
The target of assay [13] is full-length mHVEM R43D-M56A-K64D triple mutation-mCherry, on cells (mouse) (UniProt Q80WM9). Described as above.
The target in assay [14] is mHVEM^−BT/160 (G72R-V74A) soluble protein, mHVEM-hIgG1 format (mouse) (UniProt Q80WM9). Description: BLI; Octet; mHVEM-hIgG1 immobilised on the sensors, challenged with different concentrations of mLIGHT, mBTLA or mCD160; steady-state fit for mLIGHT, 1:1 Langmuir model for mBTLA and mCD160; both purified.
Assay [15] addresses mHVEM (Q39-Q206)-human IgG1-hexa-His, WT (mouse) (UniProt Q80WM9). The description is as above.
Assay [16] has as its target T1, full-length mHVEM R43D-M56A-K64D triple mutation-mCherry, on cells (mouse), Q80WM9.
T1 chain: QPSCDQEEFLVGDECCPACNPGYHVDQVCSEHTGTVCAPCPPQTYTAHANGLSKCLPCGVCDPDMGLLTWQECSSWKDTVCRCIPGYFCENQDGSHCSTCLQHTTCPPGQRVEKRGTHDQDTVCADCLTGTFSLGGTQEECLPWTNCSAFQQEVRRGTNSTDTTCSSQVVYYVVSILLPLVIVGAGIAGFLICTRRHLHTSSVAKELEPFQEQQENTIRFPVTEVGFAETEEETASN
Description: flow cytometry on cells; cell–cell method: cells with mHVEM-mCherry mixed with cells with mBTLA-EGFP or mLIGHT-IRES-EGFP, shaken at 900 rpm at room temperature for 2 h; percent double-positive cells. To be noted: remark: other sources report otherwise.

Sequences of proteins named here, by UniProt entry; tags and fusion partners are left off.
UniProt Q9QYH9: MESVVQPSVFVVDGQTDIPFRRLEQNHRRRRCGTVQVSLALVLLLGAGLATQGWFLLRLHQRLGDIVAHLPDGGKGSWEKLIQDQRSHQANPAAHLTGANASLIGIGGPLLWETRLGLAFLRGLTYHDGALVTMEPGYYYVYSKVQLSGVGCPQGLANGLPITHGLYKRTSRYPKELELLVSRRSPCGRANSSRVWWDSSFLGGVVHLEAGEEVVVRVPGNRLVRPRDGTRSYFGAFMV

Data on four molecules can be found in PMC8558838 (The Journal of Experimental Medicine, 2021).

No constants are given. Whether binding was seen depends on the method and setting. Some binding calls cover weakened binding; strength is not graded here. For some of these results: Tags and fused reporters may be left off the sequences shown.

In the case of “full-length mouse BTLA-EGFP, on cells (from UniProt Q7TSA3 30-306) (ligand)”, the binding entry is on record as “binds” in assay [1]; “binds” in [2]; “binds” in assay [3]; “binds” in assay [4]; “binds” in [5]; “no binding” in [6]. Moreover, the binding result in [7], in [8], in [9], in assay [10], in [11] and in assay [12] was “binds” each time.
Consider “full-length mouse LIGHT, on cells (mLIGHT-IRES-EGFP) (from UniProt Q9QYH9 1-239) (ligand)”, for which the binding entry in assay [1] is recorded as “binds”; in assay [2], “binds”; in assay [3] it was “binds”; in assay [4], “binds”; in assay [5], “no binding”; in [6] it was “binds”. For the same molecule, the binding result in [7], in assay [8], in [9], in assay [10], in assay [11] and in assay [13] was “binds” each time. For the same molecule, the binding entry in assay [12] is recorded as “binds”.

B1: mouse BTLA, soluble protein used as analyte in the Octet experiment (ligand, UniProt Q7TSA3 30-183, looked up)
chain: EKATKRNDEECPVQLTITRNSKQSARTGELFKIQCPVKYCVHRPNVTWCKHNGTICVPLEVSPQLYTSWEENQSVPVFVLHFKPIHLSDNGSYSCSTNFNSQVINSHSVTIHVRERTQNSSEHPLITVSDIPDATNASGPSTMEERPGRTWLLY
notes: mouse BTLA (CD272), soluble form; also called mBTLA
As for B1, the results for the binding result in [14] and in [15] were “no binding” and “binds”, respectively.

B2: full-length mouse BTLA-EGFP, on cells, Q7TSA3 30-306 (ligand)
chain: EKATKRNDEECPVQLTITRNSKQSARTGELFKIQCPVKYCVHRPNVTWCKHNGTICVPLEVSPQLYTSWEENQSVPVFVLHFKPIHLSDNGSYSCSTNFNSQVINSHSVTIHVRERTQNSSEHPLITVSDIPDATNASGPSTMEERPGRTWLLYTLLPLGALLLLLACVCLLCFLKRIQGKEKKPSDLAGRDTNLVDIPASSRTNHQALPSGTGIYDNDPWSSMQDESELTISLQSERNNQGIVYASLNHCVIGRNPRQENNMQEAPTEYASICVRS
In the case of B2, in assay [16], the binding entry is on record as “binds”.
